{"source": "paper PMC4336329", "about": "(PLoS ONE, 2015)", "note": "Hit rate of the full screen: of about 310,000 compounds, about 2,200 (0.71%) showed an effect of 50% or more. The effect is printed as a negative number. Some of the results follow.", "data": [{"molecular_target": "human ether-à-go-go-related gene (hERG) potassium channel (human, UniProt Q12809)", "sequence (Q12809 whole entry, looked up)": "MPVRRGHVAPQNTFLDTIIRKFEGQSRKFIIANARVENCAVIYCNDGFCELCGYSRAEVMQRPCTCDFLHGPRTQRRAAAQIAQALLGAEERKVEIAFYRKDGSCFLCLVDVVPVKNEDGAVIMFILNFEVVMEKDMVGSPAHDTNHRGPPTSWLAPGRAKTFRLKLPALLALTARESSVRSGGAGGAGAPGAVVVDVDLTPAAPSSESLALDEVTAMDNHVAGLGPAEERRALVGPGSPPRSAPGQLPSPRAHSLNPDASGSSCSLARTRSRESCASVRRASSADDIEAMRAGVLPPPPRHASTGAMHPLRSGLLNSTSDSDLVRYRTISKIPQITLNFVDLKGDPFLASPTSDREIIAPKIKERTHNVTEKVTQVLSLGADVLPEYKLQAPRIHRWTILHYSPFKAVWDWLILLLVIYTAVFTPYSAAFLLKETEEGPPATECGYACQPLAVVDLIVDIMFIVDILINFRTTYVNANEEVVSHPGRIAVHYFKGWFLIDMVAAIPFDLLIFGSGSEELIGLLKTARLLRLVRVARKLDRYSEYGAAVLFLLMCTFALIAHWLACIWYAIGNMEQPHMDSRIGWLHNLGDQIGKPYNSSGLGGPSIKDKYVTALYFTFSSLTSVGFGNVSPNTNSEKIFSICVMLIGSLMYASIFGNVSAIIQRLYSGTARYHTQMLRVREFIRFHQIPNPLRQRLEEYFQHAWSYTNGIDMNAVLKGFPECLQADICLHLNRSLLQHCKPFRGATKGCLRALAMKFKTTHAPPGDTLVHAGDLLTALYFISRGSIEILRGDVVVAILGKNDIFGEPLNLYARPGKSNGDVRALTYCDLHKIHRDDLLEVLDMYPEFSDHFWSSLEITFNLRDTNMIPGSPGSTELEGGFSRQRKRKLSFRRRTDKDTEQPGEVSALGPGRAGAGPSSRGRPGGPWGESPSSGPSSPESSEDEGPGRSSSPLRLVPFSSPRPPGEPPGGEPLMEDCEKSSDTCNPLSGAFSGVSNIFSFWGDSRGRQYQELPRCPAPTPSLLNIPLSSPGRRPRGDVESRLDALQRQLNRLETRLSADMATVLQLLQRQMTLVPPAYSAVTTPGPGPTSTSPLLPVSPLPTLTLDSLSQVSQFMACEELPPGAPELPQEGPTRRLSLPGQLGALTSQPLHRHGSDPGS", "test": "primary screen, population patch clamp on CHO cells stably expressing hERG", "units": {"hERG current change (%, negative = inhibition) at 1uM": "%"}, "values": [{"smiles": "CC(Oc1ccccc1)C(=O)N1CCN=C1SCc1ccccc1F", "note": "(centres unmarked)", "hERG current change (%, negative = inhibition) at 1uM": 4.47}, {"smiles": "Br.CCOC(=O)CN=C1CC(C)(C)CC2=C1Sc1ncnc(N(C)C)c1N2", "hERG current change (%, negative = inhibition) at 1uM": -8.01}, {"smiles": "COc1ccc(N2CCN(CCN3C(=O)c4ccccc4C3=O)CC2)cc1", "hERG current change (%, negative = inhibition) at 1uM": 15.7}, {"smiles": "Cc1cccc2cc3c(N)c(C(=O)N4CCOCC4)sc3nc12", "hERG current change (%, negative = inhibition) at 1uM": 12.6}, {"smiles": "CC(C)(C(=O)c1cccnc1)c1cccnc1", "hERG current change (%, negative = inhibition) at 1uM": 9.44}, {"smiles": "Cn1c(SCC(=O)NCCc2ccccc2)ncc(C(=O)Nc2ccc(F)cc2)c1=O", "hERG current change (%, negative = inhibition) at 1uM": 12.5}, {"smiles": "CNC(=O)c1csc(-c2ccncc2)n1", "hERG current change (%, negative = inhibition) at 1uM": 17.9}, {"smiles": "Cc1cccc(S(=O)(=O)N2CCn3cccc3C2C)c1", "note": "(centres unmarked)", "hERG current change (%, negative = inhibition) at 1uM": 9.22}, {"smiles": "CCOC(=O)N1CCN(C(=O)COC(=O)CNC(=O)c2ccc(Cl)cc2Cl)CC1", "hERG current change (%, negative = inhibition) at 1uM": -0.0258}, {"smiles": "COc1ccccc1Nc1ncc(-c2cccs2)s1", "hERG current change (%, negative = inhibition) at 1uM": -5.86}, {"smiles": "CC(C)OC(=O)C(C)(C)Oc1ccc(C(=O)c2ccc(Cl)cc2)cc1", "hERG current change (%, negative = inhibition) at 1uM": 2.06}, {"smiles": "COc1ccc(-n2ncc3c2CC(C)(C)CC3NC(=O)c2ccnn2C)cc1", "note": "(centres unmarked)", "hERG current change (%, negative = inhibition) at 1uM": 15.3}, {"smiles": "C#CCOCCOCCOCCNc1nc(N2CCN(C(=O)CCCCCCCCCCNC(=O)[C@H]([C@@H](C)CC)n3cc(CCCCCN)nn3)CC2)nc(N2CCN(C(=O)CCCCCCCCCCNC(=O)[C@@H]([C@H](C)O)n3cc(C)nn3)CC2)n1", "hERG current change (%, negative = inhibition) at 1uM": 1.37}, {"smiles": "CCN(CC(=O)Nc1cccc(OC)c1)CC(=O)Nc1ccc(C)cc1Cl", "hERG current change (%, negative = inhibition) at 1uM": 6.66}, {"smiles": "CCCC(=O)Nc1ncnc2c1ncn2[C@@H]1O[C@@H]2COP(=O)([O-])O[C@H]2[C@H]1OC(=O)CCC.[Na+]", "hERG current change (%, negative = inhibition) at 1uM": 14.5}, {"smiles": "O=S(=O)(NCC1CCCO1)c1ccc(Cl)cc1", "note": "(centres unmarked)", "hERG current change (%, negative = inhibition) at 1uM": 20.6}, {"smiles": "CCNC(=O)CCSc1nnc(-c2ccncc2)o1", "hERG current change (%, negative = inhibition) at 1uM": 14.1}, {"smiles": "COc1ccc(/C=C2\\SC(=O)N(CCNC(=O)Cc3coc4cc(OC)ccc34)C2=O)cc1", "hERG current change (%, negative = inhibition) at 1uM": 13.5}, {"smiles": "CC1CCCCC1NC(=O)c1ccc(NC2=NC3CS(=O)(=O)CC3S2)cc1", "note": "(centres unmarked)", "hERG current change (%, negative = inhibition) at 1uM": -4.88}, {"smiles": "CCCOC(=O)c1ccc(NC(=O)c2cc(Cl)ccc2OC)cc1", "hERG current change (%, negative = inhibition) at 1uM": 2.93}, {"smiles": "CC(C)CCc1noc(CN2CCN(CC(=O)NC(C)C)CC2)n1", "hERG current change (%, negative = inhibition) at 1uM": -0.271}, {"smiles": "CCC(=O)Nc1nc2n(n1)C(c1ccc(OC)cc1)C=C(c1ccccc1)N2", "note": "(centres unmarked)", "hERG current change (%, negative = inhibition) at 1uM": 14.8}, {"smiles": "CCCC1CCC(c2nc(-c3cccnc3)no2)CC1", "note": "(centres unmarked)", "hERG current change (%, negative = inhibition) at 1uM": -3.74}, {"smiles": "Cc1c(C(=O)O)cccc1-c1ccc(/C=C2\\SC(=O)NC2=O)o1", "hERG current change (%, negative = inhibition) at 1uM": 20.4}, {"smiles": "CCN(CC)C(=O)c1cccc(-c2ccc(OC)cc2)c1", "hERG current change (%, negative = inhibition) at 1uM": -11.2}, {"smiles": "O=C(NC1CCN(C(=O)Nc2ccccc2)CC1)C1CCCCC1", "hERG current change (%, negative = inhibition) at 1uM": 0.726}, {"smiles": "COc1cc(CN2CCCCC2)ccc1OCc1ccccc1.O=C(O)C(=O)O", "hERG current change (%, negative = inhibition) at 1uM": -6.57}, {"smiles": "CCc1ccccc1N(CC(=O)NCC1CCCO1)C(=O)CCC(=O)Nc1cc(C)on1", "note": "(centres unmarked)", "hERG current change (%, negative = inhibition) at 1uM": 7.96}, {"smiles": "CN(CCCCCCCCC(=O)/C=N/O)Cc1ccccc1.Cl", "hERG current change (%, negative = inhibition) at 1uM": -26.8}, {"smiles": "COc1cc(C(C)=O)ccc1OCC(=O)Nc1ccccc1N1CCCCC1", "hERG current change (%, negative = inhibition) at 1uM": 7.1}, {"smiles": "CCCN(CCO)Cc1ccc(F)c(Br)c1", "hERG current change (%, negative = inhibition) at 1uM": 2.37}, {"smiles": "CN(C)C(=O)CSc1nnc(-c2cnccn2)n1C", "hERG current change (%, negative = inhibition) at 1uM": 10.7}, {"smiles": "CCOP(=O)(Nc1ccc2oc(=O)c3ccccc3c2c1)OCC", "hERG current change (%, negative = inhibition) at 1uM": 2.2}, {"smiles": "CCOc1ccc(CCNC(=O)COC(=O)COc2cc(C)cc(C)c2)cc1OCC", "hERG current change (%, negative = inhibition) at 1uM": 7.4}, {"smiles": "COc1ccc(OC)c(C(O)c2nc3ccccc3n2C)c1", "note": "(centres unmarked)", "hERG current change (%, negative = inhibition) at 1uM": 1.43}, {"smiles": "COc1ccccc1N(CC(=O)N/N=C/c1ccc(OCC(=O)NCc2ccco2)cc1)S(=O)(=O)c1ccc(C)cc1", "hERG current change (%, negative = inhibition) at 1uM": 11.7}, {"smiles": "COCCC(=O)N1CCC(Oc2ccc(C(=O)NCCc3cn[nH]c3)cc2)CC1", "hERG current change (%, negative = inhibition) at 1uM": 14.5}, {"smiles": "COc1cccc(CNC(=O)CC2Sc3ccccc3NC2=O)c1", "note": "(centres unmarked)", "hERG current change (%, negative = inhibition) at 1uM": -1.03}, {"smiles": "OCCC1CN(Cc2cnc(-c3ccc(Cl)cc3)nc2)CCN1C1CCCCC1", "note": "(centres unmarked)", "hERG current change (%, negative = inhibition) at 1uM": -31.1}, {"smiles": "CC1CC(C)CN(S(=O)(=O)N2CCCC(C(=O)NCCc3ccccc3)C2)C1", "note": "(centres unmarked)", "hERG current change (%, negative = inhibition) at 1uM": 12.9}, {"smiles": "O=P1(Nc2cccnc2)COc2ccccc2OC1", "hERG current change (%, negative = inhibition) at 1uM": 20.3}, {"smiles": "COc1cc2ccccc2cc1C(=O)O", "hERG current change (%, negative = inhibition) at 1uM": 10.6}, {"smiles": "CCc1nc2ccccc2c(C(=O)OCC(=O)N2CC(C)OC(C)C2)c1C", "note": "(centres unmarked)", "hERG current change (%, negative = inhibition) at 1uM": 12.4}, {"smiles": "COc1cccc2c(=O)cn[nH]c12", "hERG current change (%, negative = inhibition) at 1uM": -0.576}]}]}
